For 40 sequences, binding signal results are on record in publication PMC12820563, “FoxP3 forms a head-to-head dimer in vivo and stabilizes its multimerization on adjacent microsatellites”.

This is one part of the list.

The target in this assay is T1, MBP-FoxP1dN (Mus musculus, UniProt P58462 326-579).
T1 sequence: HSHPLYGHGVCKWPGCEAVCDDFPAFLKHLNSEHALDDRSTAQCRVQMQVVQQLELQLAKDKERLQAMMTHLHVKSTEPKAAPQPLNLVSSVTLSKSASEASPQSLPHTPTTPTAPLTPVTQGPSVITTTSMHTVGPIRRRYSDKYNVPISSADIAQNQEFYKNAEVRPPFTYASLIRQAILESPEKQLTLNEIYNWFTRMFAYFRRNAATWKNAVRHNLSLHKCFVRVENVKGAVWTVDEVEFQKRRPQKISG
Put plainly: PD-seq (MBP pull-down with sequencing); 20 mM Tris-HCl pH 7.5, 100 mM NaCl, 1.5 mM MgCl2, 0.4 uM protein, 0.1 uM dsDNA library, 30 min, room temperature, amylose pull-down; high values mean tight binding. The settings on record: protein: recombinant; tags: His6-MBP; chain copies: 2; dsDNA, one strand shown. In outline:
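In Tris pH 7.5 buffer with NaCl and MgCl2, 0.4 µM His6-MBP-tagged mouse FoxP3 or FoxP1 fragment lacking the N-terminus, from E. coli, met 0.1 µM Klenow-filled double-stranded degenerate DNA library for 30 min at room temperature. Three washes on amylose resin followed capture of the complexes, then proteinase K release of DNA, PCR barcoding and Illumina sequencing. Binding is taken as pooled-replicate reads-per-million enrichment of pull-down relative to input.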
Take “GATGATTGTTCTCCCAGCTGATGAATTCTCACAATCGAGTAAACAAATTTTCCTAATCTTTCTGTTCAAGCGCCATCTAC”: the binding signal was 1.32 RPM ratio (pull-down/input).
The figure for “GATGATTGTTCTCCCAGCTGATGAATTCATCTTGTCGAGTAAACAAATTTTCCTAATCTTTCTGTTCAAGCGCCATCTAC” is 0.898 RPM ratio (pull-down/input); for “GATGATTGTTCTCCCAGCTGATGAATTTCCCCTATCGAGTAAACAAATTTTCCTAATCTTTCTGTTCAAGCGCCATCTAC” it is 0.86 RPM ratio (pull-down/input).
Consider “GATGATTGTTCTCCCAGCTGATGAATTACAAGGATCGAGTAAACAAATTTTCCTAATCTTTCTGTTCAAGCGCCATCTAC”, for which the binding signal was 1.04 RPM ratio (pull-down/input).
The figure for “GATGATTGTTCTCCCAGCTGATGAATTTGGGTAATCGAGTAAACAAATTTTCCTAATCTTTCTGTTCAAGCGCCATCTAC” is 1.27 RPM ratio (pull-down/input).
Consider “GATGATTGTTCTCCCAGCTGATGAATTTTACGTCTCGAGTAAACAAATTTTCCTAATCTTTCTGTTCAAGCGCCATCTAC”, for which the binding signal was 0.869 RPM ratio (pull-down/input).
With “GATGATTGTTCTCCCAGCTGATGAATTTAAGTAATCGAGTAAACAAATTTTCCTAATCTTTCTGTTCAAGCGCCATCTAC”, the binding signal was 1.67 RPM ratio (pull-down/input).
Turning to “GATGATTGTTCTCCCAGCTGATGAATTCCGTACCTCGAGTAAACAAATTTTCCTAATCTTTCTGTTCAAGCGCCATCTAC”, the binding signal is 0.829 RPM ratio (pull-down/input).
As for “GATGATTGTTCTCCCAGCTGATGAATTCACGTACTCGAGTAAACAAATTTTCCTAATCTTTCTGTTCAAGCGCCATCTAC”, the binding signal is 0.909 RPM ratio (pull-down/input).
The figure for “GATGATTGTTCTCCCAGCTGATGAATTAGGCGACTCGAGTAAACAAATTTTCCTAATCTTTCTGTTCAAGCGCCATCTAC” is 0.87 RPM ratio (pull-down/input).
For “GATGATTGTTCTCCCAGCTGATGAATTGCGGGTATCGAGTAAACAAATTTTCCTAATCTTTCTGTTCAAGCGCCATCTAC”, the binding signal was 1.08 RPM ratio (pull-down/input).
In the case of “GATGATTGTTCTCCCAGCTGATGAATTCGCTGCTTCGAGTAAACAAATTTTCCTAATCTTTCTGTTCAAGCGCCATCTAC”, the binding signal was 0.883 RPM ratio (pull-down/input).
For the sequence “GATGATTGTTCTCCCAGCTGATGAATTCGCACCCTCGAGTAAACAAATTTTCCTAATCTTTCTGTTCAAGCGCCATCTAC”, the binding signal was 0.806 RPM ratio (pull-down/input).
The figure for “GATGATTGTTCTCCCAGCTGATGAATTCGAGATATCGAGTAAACAAATTTTCCTAATCTTTCTGTTCAAGCGCCATCTAC” is 0.953 RPM ratio (pull-down/input).
The figure for “GATGATTGTTCTCCCAGCTGATGAATTGTAGTATTCGAGTAAACAAATTTTCCTAATCTTTCTGTTCAAGCGCCATCTAC” is 1.31 RPM ratio (pull-down/input); for “GATGATTGTTCTCCCAGCTGATGAATTCGCACACTCGAGTAAACAAATTTTCCTAATCTTTCTGTTCAAGCGCCATCTAC” it is 0.939 RPM ratio (pull-down/input).
Consider “GATGATTGTTCTCCCAGCTGATGAATTCGATGTGTCGAGTAAACAAATTTTCCTAATCTTTCTGTTCAAGCGCCATCTAC”, for which the binding signal is 1.02 RPM ratio (pull-down/input).
The figure for “GATGATTGTTCTCCCAGCTGATGAATTTAGACTCTCGAGTAAACAAATTTTCCTAATCTTTCTGTTCAAGCGCCATCTAC” is 0.99 RPM ratio (pull-down/input).
The figure for “GATGATTGTTCTCCCAGCTGATGAATTTTAGCCGTCGAGTAAACAAATTTTCCTAATCTTTCTGTTCAAGCGCCATCTAC” is 0.86 RPM ratio (pull-down/input); for “GATGATTGTTCTCCCAGCTGATGAATTCGACGACTCGAGTAAACAAATTTTCCTAATCTTTCTGTTCAAGCGCCATCTAC” it is 0.805 RPM ratio (pull-down/input).
For the sequence “GATGATTGTTCTCCCAGCTGATGAATTAAATCCCTCGAGTAAACAAATTTTCCTAATCTTTCTGTTCAAGCGCCATCTAC”, the binding signal is 0.886 RPM ratio (pull-down/input).
For “GATGATTGTTCTCCCAGCTGATGAATTCAGAGTATCGAGTAAACAAATTTTCCTAATCTTTCTGTTCAAGCGCCATCTAC”, the binding signal is 0.954 RPM ratio (pull-down/input).
For “GATGATTGTTCTCCCAGCTGATGAATTGATAGGGTCGAGTAAACAAATTTTCCTAATCTTTCTGTTCAAGCGCCATCTAC”, the binding signal was 0.904 RPM ratio (pull-down/input).
The figure for “GATGATTGTTCTCCCAGCTGATGAATTGTCCCCATCGAGTAAACAAATTTTCCTAATCTTTCTGTTCAAGCGCCATCTAC” is 1.08 RPM ratio (pull-down/input).
In the case of “GATGATTGTTCTCCCAGCTGATGAATTTGCGGACTCGAGTAAACAAATTTTCCTAATCTTTCTGTTCAAGCGCCATCTAC”, the binding signal was 0.882 RPM ratio (pull-down/input).
Take “GATGATTGTTCTCCCAGCTGATGAATTCCAATACTCGAGTAAACAAATTTTCCTAATCTTTCTGTTCAAGCGCCATCTAC”: the binding signal is 0.886 RPM ratio (pull-down/input).
The figure for “GATGATTGTTCTCCCAGCTGATGAATTGTATACGTCGAGTAAACAAATTTTCCTAATCTTTCTGTTCAAGCGCCATCTAC” is 1.82 RPM ratio (pull-down/input); for “GATGATTGTTCTCCCAGCTGATGAATTCTTCGGTTCGAGTAAACAAATTTTCCTAATCTTTCTGTTCAAGCGCCATCTAC” it is 0.764 RPM ratio (pull-down/input).
Regarding “GATGATTGTTCTCCCAGCTGATGAATTACGATTGTCGAGTAAACAAATTTTCCTAATCTTTCTGTTCAAGCGCCATCTAC”, the binding signal was 1.16 RPM ratio (pull-down/input).
Regarding “GATGATTGTTCTCCCAGCTGATGAATTGTCGGGCTCGAGTAAACAAATTTTCCTAATCTTTCTGTTCAAGCGCCATCTAC”, the binding signal was 0.909 RPM ratio (pull-down/input).
Regarding “GATGATTGTTCTCCCAGCTGATGAATTGCCAGTATCGAGTAAACAAATTTTCCTAATCTTTCTGTTCAAGCGCCATCTAC”, the binding signal is 0.962 RPM ratio (pull-down/input).
The figure for “GATGATTGTTCTCCCAGCTGATGAATTGTCTGGATCGAGTAAACAAATTTTCCTAATCTTTCTGTTCAAGCGCCATCTAC” is 0.943 RPM ratio (pull-down/input).
The figure for “GATGATTGTTCTCCCAGCTGATGAATTAATCTTCTCGAGTAAACAAATTTTCCTAATCTTTCTGTTCAAGCGCCATCTAC” is 0.737 RPM ratio (pull-down/input); for “GATGATTGTTCTCCCAGCTGATGAATTTGCGTCATCGAGTAAACAAATTTTCCTAATCTTTCTGTTCAAGCGCCATCTAC” it is 1.24 RPM ratio (pull-down/input).
The figure for “GATGATTGTTCTCCCAGCTGATGAATTAAAAACGTCGAGTAAACAAATTTTCCTAATCTTTCTGTTCAAGCGCCATCTAC” is 0.945 RPM ratio (pull-down/input).
For “GATGATTGTTCTCCCAGCTGATGAATTTAAACTCTCGAGTAAACAAATTTTCCTAATCTTTCTGTTCAAGCGCCATCTAC”, the binding signal is 0.874 RPM ratio (pull-down/input).
The figure for “GATGATTGTTCTCCCAGCTGATGAATTAGCAATTTCGAGTAAACAAATTTTCCTAATCTTTCTGTTCAAGCGCCATCTAC” is 1.07 RPM ratio (pull-down/input).
The figure for “GATGATTGTTCTCCCAGCTGATGAATTACAAGTTTCGAGTAAACAAATTTTCCTAATCTTTCTGTTCAAGCGCCATCTAC” is 1.36 RPM ratio (pull-down/input); for “GATGATTGTTCTCCCAGCTGATGAATTCAGGCGCTCGAGTAAACAAATTTTCCTAATCTTTCTGTTCAAGCGCCATCTAC” it is 0.806 RPM ratio (pull-down/input); for “GATGATTGTTCTCCCAGCTGATGAATTTCCTAAGTCGAGTAAACAAATTTTCCTAATCTTTCTGTTCAAGCGCCATCTAC” it is 0.871 RPM ratio (pull-down/input).
